# Data published in PubChem BioAssay AID686970 (National Center for Advancing Translational Sciences (NCATS), 2013).
# In all, about 360,000 compounds went through this assay and about 6,000 (1.7%) were called active. The inconclusive results got no clear call from the source; some entries with a clear call stand among them for comparison. Calls come from the whole dose curve; as a rule, active = well fitted cell-killing curve with a large enough effect; inconclusive = small, poorly fitted or top-dose-only effect, or effect the other way; inactive = flat fitted curve, though single readings scatter. No potency is given beside an inconclusive call; the fits are too rough.
# Assay: qHTS for induction of synthetic lethality in tumor cells producing 2HG: qHTS for the HT-1080-NT fibrosarcoma cell line;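 note: NT is the 2HG producing partner of a matched IDH1 knockdown line; nearly all actives have a fitted effect of over 55% in size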
# Details: HT-1080-NT fibrosarcoma viability, CellTiter-Glo ATP luminescence, 48 h; series mostly up to 46.1 µM
# Method in brief: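 Luminescent CellTiter-Glo readout after 48 hours of compound exposure at 37 degrees C defined viability of HT-1080-NT cells. Activity was normalized to DMSO wells and cell-free media wells; concentration-response curves were fitted and assigned curve classes.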
# Potency is the fitted concentration of half-maximal effect; tags give direction and shape of the fitted curve.
row,Structure (SMILES),Potency
1,CCOc1ccc(NC(=O)c2ccc(F)c(S(=O)(=O)N3CCN(c4ccccn4)CC3)c2)cc1,inactive
2,CCN1CCc2c(sc(NC(=O)c3ccc(S(=O)(=O)N4CCOCC4)cc3)c2C(=O)OC)C1,"inconclusive [cytotoxic, single point]"
3,COc1ccc(CCNC(=O)c2cccc(C(=O)NCCc3ccc(OC)cc3)n2)cc1,inactive
4,CCCC[C@@H]1C=C(C(=O)O)[C@H](c2ccc(Cl)c(Cl)c2)N1S(=O)(=O)c1ccc(C)cc1,inactive
5,Cn1c(=O)c2cc(NC(=O)NCc3ccc(F)cc3)ccc2n1C/C=C/c1ccccc1,"inconclusive [cytotoxic, full curve]"
6,CC(C)NC(=O)c1ccc(COc2ccc(C(C)(C)C)cc2)o1,"inconclusive [cytotoxic, full curve]"
7,O=C(O)/C=C/C(=O)Nc1ccccc1-c1ccccc1,inactive
8,S=c1nc(-c2ccccc2Br)[nH][nH]1,active: 7.08 µM
9,c1ccc2c(Nc3ccc4c(c3)OCCO4)c3c(nc2c1)CCCC3,active: 16.4 µM
10,C/C(=N\NC(=O)Cc1ccc(Cl)cc1)c1ccccc1O,"inconclusive [cytotoxic, partial curve, poor fit]"
11,Cc1ccc2[nH]cc(CCNC(=O)c3ccc4c(c3)OCO4)c2c1,inactive
12,CN(C(=O)CSc1nc(C2CC2)n(-c2ccccc2)n1)C1CCS(=O)(=O)C1 (configuration not stated),inactive
13,CC(C)(C)NC(=O)CN(C(=O)Cn1nnc(-c2ccc(Cl)cc2)n1)C1CCN(Cc2ccccc2)CC1,"inconclusive [cytotoxic, single point]"
14,COc1ccc2cc(C3(C)NC(=O)N(CC(=O)NCc4ccco4)C3=O)ccc2c1 (configuration not stated),"inconclusive [rising, single point]"
15,O=C(O)c1ccc(/C=C2\COc3ccccc3C2=O)cc1,"inconclusive [cytotoxic, full curve]"
16,COc1cc(/C=C/CN2CCC(C(=O)NC(c3ccc(F)cc3)c3ccc4ccccc4n3)CC2)ccc1OC(C)=O (configuration not stated),active: 16.4 µM
17,N#Cc1sc2nc3c(c(-c4ccco4)c2c1N)CCCC3,inactive
18,O=C(Nc1ccc(C(F)(F)F)cc1)N1CCN(c2ccnc3cc(Cl)ccc23)CC1,"inconclusive [cytotoxic, single point]"
19,Cc1cc(C(=O)N2CCN(c3cccc(Cl)c3)CC2)c(C)o1,"inconclusive [cytotoxic, partial curve]"
20,CC(C)C(NC(=O)c1c(F)cccc1F)C(=O)NC1CC(C)(C)NC(C)(C)C1 (configuration not stated),inactive
21,CC1=C(C(=O)N(C(C)C)C(C)C)CC(CC(=O)NC2CCCC2)C(=O)N1Cc1ccccc1 (configuration not stated),inactive
22,Cc1ccc(Cl)cc1NC(=S)N/N=C/c1cccc2ccccc12,active: 3.66 µM
23,COc1cccc(/C=N/NC(=O)c2cc3cc([N+](=O)[O-])ccc3s2)c1O,active: 4.11 µM
24,O=C1C(=C(O)c2ccccc2)C(=O)c2ccccc21,inactive
25,C#CC[N+](C)(C)CCCCCCCC,"inconclusive [cytotoxic, partial curve]"
26,NCC(c1ccc(Cl)cc1Cl)c1c[nH]c2ccccc12 (configuration not stated),"inconclusive [cytotoxic, single point]"

row,Structure (SMILES),Potency
1,C[C@]12CCC(=O)CC1CCC1C2CC[C@@]2(C)C1CC[C@@]21CCO1 (some centres not stated),"inconclusive [cytotoxic, single point]"
2,CC1CCN(C(=O)C2CCN(S(=O)(=O)c3cc(Cl)ccc3Cl)CC2)CC1,inactive
3,O=C(Cc1ccc(F)cc1)Nc1nnc(SCC(=O)NC2CCCC2)s1,inactive
4,Cc1[nH]c(=S)[nH]c(=O)c1CCOc1ccccc1,inactive
5,CCN(CC)S(=O)(=O)c1cccc(C(=O)Nc2nc3cc4c(cc3s2)OCCO4)c1,active: 11.2 µM
6,Fc1ccc(-[n+]2nc(Nc3ccccc3)sc2-c2c3ccccc3cc3ccccc23)cc1,active: 20.6 µM
7,NC(=O)CC(NC(=O)c1ccc(Br)cc1)c1ccc(N2CCC(Br)CC2)c([N+](=O)[O-])c1 (configuration not stated),inactive
8,Cc1c(C)c2c(OCC(=O)NCc3ccncc3)cc3c(c2oc1=O)CCC(C)(C)O3,inactive
9,Cc1ccc(NS(=O)(=O)c2cc(C(=O)NCCCN(C)C)ccc2Cl)cc1Cl,inactive
10,COc1ccc(-c2cc(C(=O)NCC(c3ccccc3)N(C)C)c3ccccc3n2)cc1OC (configuration not stated),"inconclusive [cytotoxic, single point]"
11,CN(C)CC/C=C1/c2ccc(F)cc2Sc2ccc(Cl)cc21,active: 20.6 µM
12,O=C(O)c1cc(/C=C/C(=O)c2cc(F)ccc2O)c2c(c1)COCO2,inactive
13,COc1cc(OC)c(N2CC(C(=O)Nc3cc(Cl)ccc3N3CCOCC3)CC2=O)cc1Cl (configuration not stated),active: 5.8 µM
14,CC1=C(n2nnc([N+](=O)[O-])n2)C(c2cccnc2)C(C#N)=C(N)O1 (configuration not stated),inactive
15,COc1ccc2oc(-c3ccccc3[N+](=O)[O-])cc(=O)c2c1,active: 8.2 µM
16,COc1ccc(NC(=O)CCSc2ccc(F)cc2)cc1,"inconclusive [cytotoxic, single point]"
17,O=[N+]([O-])c1ccc(N/N=C/c2cccc(O)c2O)cc1,"inconclusive [cytotoxic, single point]"
18,CC(C)c1ccccc1NC(=S)NC(C)c1ccccc1 (configuration not stated),inactive
19,Oc1ccc(/C=N/Nc2nc(-c3ccccc3F)nc3ccccc23)c(O)c1,"inconclusive [cytotoxic, partial curve]"
20,Cc1c(O)ccc(C(=O)CN2CCN(Cc3ccccc3)CC2)c1O,inactive
21,CCCc1cc(=O)[nH]c(SCC(=O)Nc2cc(S(=O)(=O)N3CCCCC3)ccc2Cl)n1,active: 6.51 µM
22,CNC(=O)Cn1c(C)cc(=O)c2cccc(C)c21,inactive
23,Nc1c(C(=O)c2ccccc2)sc2c1c(=O)[nH]c(=O)n2-c1ccccc1,inactive
24,Cc1ccc(-c2cc(C(F)F)nc(S(C)(=O)=O)n2)cc1,active: 23.1 µM
25,O=C1CC(c2cccc(Cl)c2)c2cc3c(cc2N1)CCC3 (configuration not stated),active: 7.08 µM
26,O=C1/C(=C/c2ccc(N3CCOCC3)o2)SC(=Nc2ccccc2)N1CCc1c[nH]c2ccccc12,active: 7.31 µM
